# Assay results published in publication PMC13083723 (Patterns, 2026).
# The whole screen tested about 5,400 compounds, of which about 190 (3.5%) showed an effect of 50% or more. This is one part of the list.
# System: Vero-E6
# Assay: primary screen, phospholipidosis by LipidTOX staining; higher = more effect of the substance
# Conditions: 10 µM
# Procedure, shortened: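 Drug-induced phospholipidosis detected with HCS LipidTOX Red reagent in Vero-E6 cells. Compounds tested at 10 μM, with amiodarone (10 μM) as positive control and DMSO (0.1 v/v %) as vehicle.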
row,SMILES,result_ITMP [%]
1,c1ccc(CCCN2CCN(CCOC(c3ccccc3)c3ccccc3)CC2)cc1,15
2,CC[C@H](CC[C@@H](C)[C@H]1CC[C@H]2[C@@H]3CC=C4C[C@@H](O[C@@H]5O[C@H](CO)[C@@H](O)[C@H](O)[C@H]5O)CC[C@]4(C)[C@H]3CC[C@]12C)C(C)C,0.41
3,Cc1nn(C)c2c1C(c1ccc(C(F)(F)F)cc1)C(C#N)=C(N)O2 (stereo not drawn),-0.76
4,Cc1c(I)c(=O)n(-c2ccccc2)n1C,-2.43
5,Cc1ccccc1C(OCCN(C)C)c1ccccc1 (stereo not drawn),25.3
6,Cc1ccc(/C=C2\CNC/C(=C\c3ccc(C)cc3)C2=O)cc1,2.54
7,O=C1CCc2ccc(OCCCCN3CCN(c4cccc(Cl)c4Cl)CC3)cc2N1,-3.7
8,CCCCCCCCCCCCCCCC(=O)C(F)(F)F,-2.15
9,CN(C)CCOC(c1ccc(Cl)cc1)c1ccccn1 (stereo not drawn),2.78
10,Nc1nc2c(ccc3ccccc32)s1,-1.43
11,NC(=O)NC1NC(=O)NC1=O (stereo not drawn),-3.18
12,CCOCc1nc2c(N)nc3ccccc3c2n1CC(C)(C)O,0.48
13,Cc1cccc2c1CC[C@H](CN1CCC(c3c(Cl)cccc3Cl)CC1)C[C@@H]2O,5.16
14,O=C(O)CNC(=O)c1nc(Cl)c2ccccc2c1O,-2.69
15,NCCCC(N)(C(=O)O)C(F)F (stereo not drawn),1.12
16,CCC[C@@H]1C[C@@H](C(=O)N[C@@H]([C@H]2O[C@H](SC)[C@H](OP(=O)(O)O)[C@@H](O)[C@H]2O)[C@H](C)Cl)N(C)C1,-1.73
17,O=C(N[C@@H]1CC[C@@H](c2cccc(F)c2F)CN(CC(F)(F)F)C1=O)N1CCC(n2c(=O)[nH]c3ncccc32)CC1,-1.74
18,CCCCCCCCCCCC1=C(O)C(=O)C=C(O)C1=O,-1.73
19,COc1c2ccoc2cc2oc(=O)ccc12,-2.63
20,Cc1ccc(NC2=NCCN2)c(Cl)c1,-3.49
21,COC(=O)C1=C(C)NC(C)=C(C(=O)OCC(C)C)C1c1ccccc1[N+](=O)[O-] (stereo not drawn),-1.79
22,COCCn1c2c([n+](Cc3cnccn3)c1C)C(=O)c1ccccc1C2=O,-1.41
23,CCCn1c(=O)c2[nH]cnc2n(-c2ccc(Cl)cc2)c1=O,-8.65
24,CC1(C)CCC(C)(C)c2cc(C(=O)Nc3ccc(C(=O)O)cc3)ccc21,-1.5
25,COc1ccc2cc(OCC3(C(=O)O)CN(C(=O)c4ccc(F)cc4)C3)ccc2c1,10.8
26,O=C1Cc2c([nH]c3ccc(Br)cc23)-c2ncccc2N1,3.76
27,C=C[C@@]1(C)CC(=O)[C@@]2(O)[C@](C)(O1)[C@@H](OC(C)=O)[C@@H](O)C1C(C)(C)CC[C@H](O)[C@@]12C (stereo partly drawn),-4.36
